PMC10466050, “A comparative study of human and zebrafish glucocorticoid receptor activities of natural and pharmaceutical steroids” (Frontiers in Endocrinology, 2023)
Values joined by “and” are separate entries in the source; they are usually repeats but may differ in a detail not shown here. Identical values can stand only once.

Key:
zfGR [1] = molecular target: T1, zfGR (Danio rerio, UniProt Q1XHK0); test: Antagonistic activity assessment in presence of 3 nM dexamethasone, UMLN-zfGR cells; type: cell-based, zebrafish; conditions: for antagonist activity (in words): UMLN-zfGR cells, with dexamethasone 3 nM
zfGR [2] = molecular target: T1, zfGR; test: Transactivation assay in zebrafish liver ZFL-zfGR pool cells; type: cell-based; conditions: for agonist activity (in words): ZFL-zfGR pool cells
Description: The transfected cells were treated 7 days with G418 and puromycin but not cloned.
The different reporter cell lines used in this study are summarized in the Supplementary Table 1 .

zfGR [3] = molecular target: T1, zfGR; test: In vitro transactivation assay (agonism), UMLN-zfGR reporter cells; conditions: for REP (relative potency): UMLN-zfGR, ratio of EC50 values, DEX set at 1
hGR [4] = molecular target: T2, hGR (Homo sapiens, UniProt P04150); test: In vitro transactivation assay (agonism), HMLN-hGR reporter cells; conditions: for % max act (maximal activity) / REP (relative potency): HMLN-hGR; for % max act (maximal activity): % of maximal luciferase activity induced by 100 nM dexamethasone, at 10^-5M (10^-6M for bimedrazole, cortivazol, dexamethasone); for REP (relative potency): ratio of EC50 values, DEX set at 1; for agonist activity (in words): HMLN-hGR cells
T2 sequence (P04150 1-777): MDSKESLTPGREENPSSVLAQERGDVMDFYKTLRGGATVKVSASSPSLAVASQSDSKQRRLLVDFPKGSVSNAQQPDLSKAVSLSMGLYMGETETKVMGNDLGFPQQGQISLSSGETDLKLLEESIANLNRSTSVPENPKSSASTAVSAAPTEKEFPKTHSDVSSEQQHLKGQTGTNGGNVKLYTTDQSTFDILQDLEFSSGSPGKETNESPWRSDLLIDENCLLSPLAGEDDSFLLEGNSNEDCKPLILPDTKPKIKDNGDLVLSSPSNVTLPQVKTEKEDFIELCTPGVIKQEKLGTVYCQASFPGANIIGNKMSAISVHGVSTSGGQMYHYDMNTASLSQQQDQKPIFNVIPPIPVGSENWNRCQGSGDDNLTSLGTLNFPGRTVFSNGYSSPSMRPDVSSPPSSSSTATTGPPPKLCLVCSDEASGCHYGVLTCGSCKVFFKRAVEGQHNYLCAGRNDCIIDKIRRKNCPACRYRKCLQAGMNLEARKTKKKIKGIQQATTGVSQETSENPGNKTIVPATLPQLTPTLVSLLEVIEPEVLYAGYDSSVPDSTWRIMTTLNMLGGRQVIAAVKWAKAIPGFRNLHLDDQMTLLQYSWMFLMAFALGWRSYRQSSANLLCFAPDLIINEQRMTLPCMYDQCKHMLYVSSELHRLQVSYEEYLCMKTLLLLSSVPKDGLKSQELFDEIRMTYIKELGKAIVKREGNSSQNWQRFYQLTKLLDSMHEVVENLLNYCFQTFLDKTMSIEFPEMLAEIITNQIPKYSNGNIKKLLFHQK

hGR [5] = molecular target: T2, hGR; conditions: HMLN-hGR cells, with dexamethasone 3 nM

SMILES	antagonist activity (in words) (zfGR [1])	EC50 (zfGR [2]) [nM]	EC50 (zfGR [3]) [nM]	REP (relative potency) (zfGR [3])	EC50 (hGR [4]) [nM]	% max act (maximal activity) (hGR [4])	REP (relative potency) (hGR [4])	agonist activity (in words) (zfGR [2])	agonist activity (in words) (hGR [4])	IC50 (zfGR [1]; IC50, UMLN-zfGR cells, antagonistic activity, with 3 nM dexamethasone)	agonist activity (in words) (zfGR [3]; UMLN-zfGR cells)	antagonist activity (in words) (hGR [5])
CSCC(=O)C1C(C)CC2C3CCC4=CC(=O)C=CC4(C)C3(F)C(O)CC21C (stereo not drawn) [RU24782]	partially repress dexamethasone-induced activity at sub-micromolar concentrations	1940	1500	0.001	21	130 ± 7%	0.07	–	–	–	–	–
CC1CC2C3CCC4=CC(=O)C=CC4(C)C3(F)C(O)CC2(C)C1C(=O)CC#N (stereo not drawn) [RU24858]	partially repress dexamethasone-induced activity at sub-micromolar concentrations	1030	743	0.003	46	103 ± 6%	0.03	–	–	–	–	–
C[C@]12CCC(=O)C=C1CC[C@@H]1[C@@H]2[C@@H](O)C[C@]2(C=O)[C@@H](C(=O)CO)CC[C@@H]12 [aldosterone]	–	–	1240	0.002	567	96% and 96 ± 5%	0.002	only slightly activated luciferase expression	fully agonist	–	–	–
CC1=CC2C(C(O)CC3(C)C2CC(C)C3(O)C(=O)CO)C2(C)Cc3cnn(-c4ccccc4)c3C=C12 (stereo not drawn) [bimedrazole]	–	–	0.05	–	–	–	–	–	–	–	–	–
C[C@]12CCC(=O)C=C1CC[C@@H]1[C@@H]2[C@@H](O)C[C@@]2(C)[C@H]1CC[C@]2(O)C(=O)CO [cortisol]	–	–	15	–	–	–	–	–	–	–	–	–
CC(=O)OCC(=O)[C@@]1(O)[C@H](C)C[C@H]2[C@@H]3C=C(C)C4=Cc5c(cnn5-c5ccccc5)C[C@]4(C)[C@H]3[C@@H](O)C[C@@]21C [cortivazol]	–	–	–	–	0.18	97 ± 6%	7.8	–	–	–	–	–
CCOC1=CC2=C(C)CC3C(C(O)CC4(C)C3CC(C)C43OCOC34COCO4)C2(C)CC1 (stereo not drawn) [forbimenol]	–	–	–	–	498	96 ± 12%	0.003	only slightly activated luciferase expression	–	–	–	–
CC#C[C@]1(O)CC[C@H]2[C@@H]3CCC4=CC(=O)CCC4=C3[C@@H](c3ccc(N(C)C)cc3)C[C@@]21C [mifepristone]	partial antagonist	–	10	–	–	–	–	–	partial agonist	10 to 40 nM and 37 nM	partial agonist	partial antagonist
